# Some of the results follow.
# B1: SSP1 (Sclerotinia sclerotiorum), XP_001584968 (protein)
# chain: MGSSHHHHHHSSGLVPRGSHMSLLTTELACTSAPDQVLHLFFQDGQNILEARSPDGGNVWTTQDTIIAKDGDYNGSSMTCYYVDKDANFDNQPSIHLLYMNKDKQLTEKVKRMKGDNPIWEDAKVPDEVRKGPEQYSKLTSGSFNQGTGWNPNGSQWAYFSASKDGKMGIVEIRRTPKDPWHTETILEEKWGDELPGTALACVIGNGKIRVFLQHHDYSIILYENQNNTWHDRGTFIPKDKVQATTPLACTMTKDGSVHLFYVSKSNKIIHCTDGKKEEELINFFPGSKLGATSVENKITLFFRNLNPVNEVGTLENENGSWKHGTTVIPA
# What was measured:
# Assay in all cases: glycan array binding signal (z-score within array); higher = stronger binding
# Conditions in all cases: glycan notation: IUPAC condensed, linker removed
# [1] = molecular target: Gal(b1-4)GlcNAc(b1-2)[Gal(b1-4)GlcNAc(b1-6)]Man(a1-6)[Gal(b1-4)GlcNAc(b1-2)Man(a1-3)]Man(b1-4)GlcNAc(b1-4)[Fuc(a1-6)]GlcNAc
# In short: (§1)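 Negative Z-scores can be read as non-binding. The Z-score is calculated within each array and then averaged across arrays of one protein sequence at different concentrations or buffers and across linkers. Arrays, 3228 in all, were curated from the Consortium for Functional Glycomics database and kept only where the protein sequence was available.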
# [2] = molecular target: Gal(b1-4)GlcNAc(b1-2)[Gal(b1-4)GlcNAc(b1-6)]Man(a1-6)[GlcNAc(b1-4)][Gal(b1-4)GlcNAc(b1-2)Man(a1-3)]Man(b1-4)GlcNAc(b1-4)GlcNAc
# In short: as §1
# [3] = molecular target: Gal(b1-4)GlcNAc(b1-2)[Gal(b1-4)GlcNAc(b1-6)]Man(a1-6)[GlcNAc(b1-4)][Gal(b1-4)GlcNAc(b1-2)[Gal(b1-4)GlcNAc(b1-4)]Man(a1-3)]Man(b1-4)GlcNAc(b1-4)[Fuc(a1-6)]GlcNAc
# In short: as §1
# [4] = molecular target: Gal(b1-4)GlcNAc(b1-3)Gal(b1-3)GalNAc
# In short: as §1
# [5] = molecular target: Gal(b1-4)GlcNAc(b1-3)Gal(b1-3)GlcNAc
# In short: as §1
# [6] = molecular target: Gal(b1-4)GlcNAc(b1-3)Gal(b1-4)Glc
# In short: as §1
# [7] = molecular target: Gal(b1-4)GlcNAc(b1-3)Gal(b1-4)GlcNAc
# In short: as §1
# [8] = molecular target: Gal(b1-4)GlcNAc(b1-3)Gal(b1-4)GlcNAc(b1-2)Man(a1-3)[Gal(b1-4)GlcNAc(b1-3)Gal(b1-4)GlcNAc(b1-2)Man(a1-6)]Man(b1-4)GlcNAc(b1-4)GlcNAc
# In short: as §1
# [9] = molecular target: Gal(b1-4)GlcNAc(b1-3)Gal(b1-4)GlcNAc(b1-2)Man(a1-3)[Gal(b1-4)GlcNAc(b1-3)Gal(b1-4)GlcNAc(b1-2)Man(a1-6)]Man(b1-4)GlcNAc(b1-4)[Fuc(a1-6)]GlcNAc
# In short: as §1
# [10] = molecular target: Gal(b1-4)GlcNAc(b1-3)Gal(b1-4)GlcNAc(b1-2)[Gal(b1-4)GlcNAc(b1-3)Gal(b1-4)GlcNAc(b1-6)]Man(a1-6)[Gal(b1-4)GlcNAc(b1-3)Gal(b1-4)GlcNAc(b1-2)Man(a1-3)]Man(b1-4)GlcNAc(b1-4)GlcNAc
# In short: as §1
# [11] = molecular target: Gal(b1-4)GlcNAc(b1-3)Gal(b1-4)GlcNAc(b1-2)[Gal(b1-4)GlcNAc(b1-3)Gal(b1-4)GlcNAc(b1-6)]Man(a1-6)[Gal(b1-4)GlcNAc(b1-3)Gal(b1-4)GlcNAc(b1-2)Man(a1-3)]Man(b1-4)GlcNAc(b1-4)[Fuc(a1-6)]GlcNAc
# In short: as §1
# [12] = molecular target: Gal(b1-4)GlcNAc(b1-3)Gal(b1-4)GlcNAc(b1-3)Gal(b1-4)GlcNAc
# In short: as §1
# [13] = molecular target: Gal(b1-4)GlcNAc(b1-3)Gal(b1-4)GlcNAc(b1-3)Gal(b1-4)GlcNAc(b1-2)Man(a1-3)[Gal(b1-4)GlcNAc(b1-3)Gal(b1-4)GlcNAc(b1-3)Gal(b1-4)GlcNAc(b1-2)Man(a1-6)]Man(b1-4)GlcNAc(b1-4)GlcNAc
# In short: as §1
# [14] = molecular target: Gal(b1-4)GlcNAc(b1-3)Gal(b1-4)GlcNAc(b1-3)Gal(b1-4)GlcNAc(b1-2)Man(a1-3)[Gal(b1-4)GlcNAc(b1-3)Gal(b1-4)GlcNAc(b1-3)Gal(b1-4)GlcNAc(b1-2)Man(a1-6)]Man(b1-4)GlcNAc(b1-4)[Fuc(a1-6)]GlcNAc
# In short: as §1
# [15] = molecular target: Gal(b1-4)GlcNAc(b1-3)Gal(b1-4)GlcNAc(b1-3)Gal(b1-4)GlcNAc(b1-2)[Gal(b1-4)GlcNAc(b1-3)Gal(b1-4)GlcNAc(b1-3)Gal(b1-4)GlcNAc(b1-6)]Man(a1-6)[Gal(b1-4)GlcNAc(b1-3)Gal(b1-4)GlcNAc(b1-3)Gal(b1-4)GlcNAc(b1-2)Man(a1-3)]Man(b1-4)GlcNAc(b1-4)[Fuc(a1-6)]GlcNAc
# In short: as §1
# [16] = molecular target: Gal(b1-4)GlcNAc(b1-3)Gal(b1-4)GlcNAc(b1-3)Gal(b1-4)GlcNAc(b1-3)Gal(b1-4)GlcNAc(b1-2)Man(a1-3)[Gal(b1-4)GlcNAc(b1-3)Gal(b1-4)GlcNAc(b1-3)Gal(b1-4)GlcNAc(b1-3)Gal(b1-4)GlcNAc(b1-2)Man(a1-6)]Man(b1-4)GlcNAc(b1-4)GlcNAc
# In short: as §1
# [17] = molecular target: Gal(b1-4)GlcNAc(b1-3)Gal(b1-4)GlcNAc(b1-3)Gal(b1-4)GlcNAc(b1-3)Gal(b1-4)GlcNAc(b1-2)Man(a1-3)[Gal(b1-4)GlcNAc(b1-3)Gal(b1-4)GlcNAc(b1-3)Gal(b1-4)GlcNAc(b1-3)Gal(b1-4)GlcNAc(b1-2)Man(a1-6)]Man(b1-4)GlcNAc(b1-4)[Fuc(a1-6)]GlcNAc
# In short: as §1
# [18] = molecular target: Gal(b1-4)GlcNAc(b1-3)Gal(b1-4)GlcNAc(b1-3)Gal(b1-4)GlcNAc(b1-3)Gal(b1-4)GlcNAc(b1-2)[Gal(b1-4)GlcNAc(b1-3)Gal(b1-4)GlcNAc(b1-3)Gal(b1-4)GlcNAc(b1-3)Gal(b1-4)GlcNAc(b1-6)]Man(a1-6)[Gal(b1-4)GlcNAc(b1-3)Gal(b1-4)GlcNAc(b1-3)Gal(b1-4)GlcNAc(b1-3)Gal(b1-4)GlcNAc(b1-2)Man(a1-3)]Man(b1-4)GlcNAc(b1-4)[Fuc(a1-6)]GlcNAc
# In short: as §1
# [19] = molecular target: Gal(b1-4)GlcNAc(b1-3)Gal(b1-4)GlcNAc(b1-3)Gal(b1-4)GlcNAc(b1-3)Gal(b1-4)GlcNAc(b1-3)Gal(b1-4)GlcNAc(b1-2)Man(a1-3)[Gal(b1-4)GlcNAc(b1-3)Gal(b1-4)GlcNAc(b1-3)Gal(b1-4)GlcNAc(b1-3)Gal(b1-4)GlcNAc(b1-3)Gal(b1-4)GlcNAc(b1-2)Man(a1-6)]Man(b1-4)GlcNAc(b1-4)GlcNAc
# In short: as §1
# [20] = molecular target: Gal(b1-4)GlcNAc(b1-3)Gal(b1-4)GlcNAc(b1-3)Gal(b1-4)GlcNAc(b1-3)Gal(b1-4)GlcNAc(b1-3)Gal(b1-4)GlcNAc(b1-2)Man(a1-3)[Gal(b1-4)GlcNAc(b1-3)Gal(b1-4)GlcNAc(b1-3)Gal(b1-4)GlcNAc(b1-3)Gal(b1-4)GlcNAc(b1-3)Gal(b1-4)GlcNAc(b1-2)Man(a1-6)]Man(b1-4)GlcNAc(b1-4)[Fuc(a1-6)]GlcNAc
# In short: as §1
# [21] = molecular target: Gal(b1-4)GlcNAc(b1-3)Gal(b1-4)GlcNAc(b1-3)Gal(b1-4)GlcNAc(b1-3)Gal(b1-4)GlcNAc(b1-3)Gal(b1-4)GlcNAc(b1-2)[Gal(b1-4)GlcNAc(b1-3)Gal(b1-4)GlcNAc(b1-3)Gal(b1-4)GlcNAc(b1-3)Gal(b1-4)GlcNAc(b1-3)Gal(b1-4)GlcNAc(b1-6)]Man(a1-6)[Gal(b1-4)GlcNAc(b1-3)Gal(b1-4)GlcNAc(b1-3)Gal(b1-4)GlcNAc(b1-3)Gal(b1-4)GlcNAc(b1-3)Gal(b1-4)GlcNAc(b1-2)Man(a1-3)]Man(b1-4)GlcNAc(b1-4)[Fuc(a1-6)]GlcNAc
# In short: as §1
# [22] = molecular target: Gal(b1-4)GlcNAc(b1-3)Gal(b1-4)GlcNAc(b1-3)Gal(b1-4)GlcNAc(b1-3)Gal(b1-4)GlcNAc(b1-3)Gal(b1-4)GlcNAc(b1-3)Gal(b1-4)GlcNAc(b1-2)Man(a1-3)[Gal(b1-4)GlcNAc(b1-3)Gal(b1-4)GlcNAc(b1-3)Gal(b1-4)GlcNAc(b1-3)Gal(b1-4)GlcNAc(b1-3)Gal(b1-4)GlcNAc(b1-3)Gal(b1-4)GlcNAc(b1-2)Man(a1-6)]Man(b1-4)GlcNAc(b1-4)GlcNAc
# In short: as §1
# [23] = molecular target: Gal(b1-4)GlcNAc(b1-3)Gal(b1-4)GlcNAc(b1-3)GalNAc
# In short: as §1
# [24] = molecular target: Gal(b1-4)GlcNAc(b1-3)Gal(b1-4)GlcNAc(b1-3)[Gal(b1-4)GlcNAc(b1-3)Gal(b1-4)GlcNAc(b1-6)]GalNAc
# In short: as §1
# [25] = molecular target: Gal(b1-4)GlcNAc(b1-3)Gal(b1-4)GlcNAc(b1-6)[Gal(b1-3)]GalNAc
# In short: as §1
# [26] = molecular target: Gal(b1-4)GlcNAc(b1-3)Gal(b1-4)[Fuc(a1-3)]GlcNAc(b1-3)Gal(b1-4)[Fuc(a1-3)]GlcNAc
# In short: as §1
# [27] = molecular target: Gal(b1-4)GlcNAc(b1-3)GalNAc
# In short: as §1
# [28] = molecular target: Gal(b1-4)GlcNAc(b1-3)[Fuc(a1-3)GlcNAc(b1-6)]Gal(b1-4)Glc
# In short: as §1
# [29] = molecular target: Gal(b1-4)GlcNAc(b1-3)[Gal(b1-4)GlcNAc(b1-6)]Gal(b1-4)GlcNAc
# In short: as §1
# [30] = molecular target: Gal(b1-4)GlcNAc(b1-3)[GlcNAc(b1-6)]Gal(b1-4)GlcNAc
# In short: as §1
# [31] = molecular target: Gal(b1-4)GlcNAc(b1-6)Gal(b1-4)GlcNAc
# In short: as §1
# [32] = molecular target: Gal(b1-4)GlcNAc(b1-6)GalNAc
# In short: as §1
# [33] = molecular target: Gal(b1-4)GlcNAc(b1-6)[Gal(b1-3)]GalNAc
# In short: as §1
# [34] = molecular target: Gal(b1-4)GlcNAc(b1-6)[Gal(b1-4)GlcNAc(b1-3)]GalNAc
# In short: as §1
# Gal(b1-4)GlcNAc6P = molecular target: Gal(b1-4)GlcNAc6P
# In short: as §1
# Gal(b1-6)Gal = molecular target: Gal(b1-6)Gal
# In short: as §1
# Gal3S(b1-3)GalNAc = molecular target: Gal3S(b1-3)GalNAc
# In short: as §1
# Gal3S(b1-3)GlcNAc = molecular target: Gal3S(b1-3)GlcNAc
# In short: as §1
binder,measurement,setting,value
B1,glycan array binding signal (z-score),[1],-0.531
same,glycan array binding signal (z-score),[2],-0.67
same,glycan array binding signal (z-score),[3],0.197
same,glycan array binding signal (z-score),[4],-0.472
same,glycan array binding signal (z-score),[5],-0.368
same,glycan array binding signal (z-score),[6],-0.248
same,glycan array binding signal (z-score),[7],0.171
same,glycan array binding signal (z-score),[8],8.48
same,glycan array binding signal (z-score),[9],0.322
same,glycan array binding signal (z-score),[10],0.515
same,glycan array binding signal (z-score),[11],1.26
same,glycan array binding signal (z-score),[12],-0.449
same,glycan array binding signal (z-score),[13],0.651
same,glycan array binding signal (z-score),[14],0.491
same,glycan array binding signal (z-score),[15],0.566
same,glycan array binding signal (z-score),[16],-0.108
same,glycan array binding signal (z-score),[17],0.184
same,glycan array binding signal (z-score),[18],0.38
same,glycan array binding signal (z-score),[19],0.117
same,glycan array binding signal (z-score),[20],0.876
same,glycan array binding signal (z-score),[21],0.477
same,glycan array binding signal (z-score),[22],0.318
same,glycan array binding signal (z-score),[23],-0.217
same,glycan array binding signal (z-score),[24],-0.003
same,glycan array binding signal (z-score),[25],0.557
same,glycan array binding signal (z-score),[26],-0.435
same,glycan array binding signal (z-score),[27],-0.369
same,glycan array binding signal (z-score),[28],-0.131
same,glycan array binding signal (z-score),[29],-0.389
same,glycan array binding signal (z-score),[30],-0.737
same,glycan array binding signal (z-score),[31],-0.146
same,glycan array binding signal (z-score),[32],0.221
same,glycan array binding signal (z-score),[33],-0.405
same,glycan array binding signal (z-score),[34],0.072
same,glycan array binding signal (z-score),Gal(b1-4)GlcNAc6P,-0.463
same,glycan array binding signal (z-score),Gal(b1-6)Gal,0.623
same,glycan array binding signal (z-score),Gal3S(b1-3)GalNAc,-0.655
same,glycan array binding signal (z-score),Gal3S(b1-3)GlcNAc,-0.512

# From the supplement of paper PMC8728848
